Experimental data taken from paper PMC6794377.
Results are given in words; binding and its absence hold for the method and conditions named. In cells and extracts the contact can be indirect. Some entries that bind do so weakly or less than the wild type. Tags and fused reporters may be left off the sequences shown.

Chains of the proteins cited; added tags and fusions are not shown.
UniProt P07814: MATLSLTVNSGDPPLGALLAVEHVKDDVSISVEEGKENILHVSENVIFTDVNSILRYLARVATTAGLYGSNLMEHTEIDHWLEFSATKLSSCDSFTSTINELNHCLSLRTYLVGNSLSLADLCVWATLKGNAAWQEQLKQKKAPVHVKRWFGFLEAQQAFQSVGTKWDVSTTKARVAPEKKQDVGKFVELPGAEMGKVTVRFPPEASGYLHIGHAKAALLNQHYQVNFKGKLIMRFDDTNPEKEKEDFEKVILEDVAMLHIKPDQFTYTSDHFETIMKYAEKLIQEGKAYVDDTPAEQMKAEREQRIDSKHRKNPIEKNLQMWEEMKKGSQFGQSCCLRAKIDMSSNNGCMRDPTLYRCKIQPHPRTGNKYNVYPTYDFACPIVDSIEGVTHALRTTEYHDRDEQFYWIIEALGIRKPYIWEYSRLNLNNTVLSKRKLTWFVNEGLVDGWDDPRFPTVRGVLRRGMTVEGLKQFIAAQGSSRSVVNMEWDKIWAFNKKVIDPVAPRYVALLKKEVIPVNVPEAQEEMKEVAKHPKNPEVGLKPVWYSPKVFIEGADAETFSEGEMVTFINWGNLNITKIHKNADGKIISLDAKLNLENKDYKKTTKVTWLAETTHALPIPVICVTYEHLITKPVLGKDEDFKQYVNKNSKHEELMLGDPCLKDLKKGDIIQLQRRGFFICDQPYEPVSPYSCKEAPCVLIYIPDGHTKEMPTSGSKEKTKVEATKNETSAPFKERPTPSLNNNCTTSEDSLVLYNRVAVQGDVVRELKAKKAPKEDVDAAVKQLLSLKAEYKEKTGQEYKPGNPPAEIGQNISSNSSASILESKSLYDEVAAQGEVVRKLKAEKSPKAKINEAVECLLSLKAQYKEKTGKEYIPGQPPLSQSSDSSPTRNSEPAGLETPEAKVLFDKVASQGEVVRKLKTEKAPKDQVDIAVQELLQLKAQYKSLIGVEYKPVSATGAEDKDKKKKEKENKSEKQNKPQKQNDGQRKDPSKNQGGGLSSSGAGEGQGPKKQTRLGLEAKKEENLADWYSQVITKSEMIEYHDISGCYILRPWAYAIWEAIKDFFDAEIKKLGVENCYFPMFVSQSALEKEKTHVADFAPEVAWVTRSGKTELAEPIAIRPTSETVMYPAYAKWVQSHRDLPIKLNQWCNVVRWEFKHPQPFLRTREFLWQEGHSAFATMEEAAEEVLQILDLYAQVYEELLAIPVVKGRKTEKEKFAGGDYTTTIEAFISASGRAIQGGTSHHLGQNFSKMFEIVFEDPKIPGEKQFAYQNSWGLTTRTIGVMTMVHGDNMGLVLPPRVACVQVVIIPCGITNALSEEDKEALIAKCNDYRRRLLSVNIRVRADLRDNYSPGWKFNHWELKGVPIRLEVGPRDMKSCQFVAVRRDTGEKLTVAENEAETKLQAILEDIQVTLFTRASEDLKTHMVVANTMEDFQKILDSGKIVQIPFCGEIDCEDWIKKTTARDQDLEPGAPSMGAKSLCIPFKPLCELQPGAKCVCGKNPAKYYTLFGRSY

Biological target: T1, hThrRS-L-T449D with a C-terminal FLAG tag (human) (UniProt A2RTX5)
T1 sequence: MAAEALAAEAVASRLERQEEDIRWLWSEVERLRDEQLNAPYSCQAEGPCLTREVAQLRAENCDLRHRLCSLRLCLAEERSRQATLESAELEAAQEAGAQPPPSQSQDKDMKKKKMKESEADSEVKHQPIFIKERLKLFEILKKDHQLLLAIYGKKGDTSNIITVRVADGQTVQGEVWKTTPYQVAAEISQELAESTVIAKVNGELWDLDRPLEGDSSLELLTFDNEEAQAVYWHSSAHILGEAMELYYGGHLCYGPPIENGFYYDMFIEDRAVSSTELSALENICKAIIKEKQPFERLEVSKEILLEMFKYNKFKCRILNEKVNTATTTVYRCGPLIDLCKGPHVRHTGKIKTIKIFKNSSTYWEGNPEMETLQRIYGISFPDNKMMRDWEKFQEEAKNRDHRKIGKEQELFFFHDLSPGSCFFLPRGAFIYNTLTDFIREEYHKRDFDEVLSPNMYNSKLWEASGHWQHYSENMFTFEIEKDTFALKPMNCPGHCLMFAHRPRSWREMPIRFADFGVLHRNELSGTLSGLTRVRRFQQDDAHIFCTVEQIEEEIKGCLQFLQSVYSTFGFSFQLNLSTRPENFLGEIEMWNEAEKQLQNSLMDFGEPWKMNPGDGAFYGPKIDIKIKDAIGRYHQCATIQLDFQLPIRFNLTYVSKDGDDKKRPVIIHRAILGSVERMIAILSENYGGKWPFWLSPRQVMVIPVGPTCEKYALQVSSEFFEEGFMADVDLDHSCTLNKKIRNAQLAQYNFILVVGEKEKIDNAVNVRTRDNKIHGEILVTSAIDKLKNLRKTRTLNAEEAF
Test: co-IP; FLAG-tagged hThrRS-L or mutant overexpressed in HEK293T; IP with anti-FLAG, Dynabeads protein G, 4°C; endogenous partners detected by western blotting

binding: binds
Substance: GluProRS, endogenous in HEK293T (from UniProt P07814 1-1512) (enzyme)
